Data taken from PubChem BioAssay AID504832 (National Center for Advancing Translational Sciences (NCATS), 2011).
In all, about 310,000 compounds went through this assay and about 18,000 (5.8%) were called active. This list was built around the results that the source calls inconclusive (neither active nor inactive); the mix of calls is not that of the screen. The call rests on the fitted dose curve; in most records, active means well fitted inhibition curve with a large enough effect; inconclusive means small, poorly fitted or top-dose-only effect, or another doubt; inactive means no such curve, though single readings can be large or run the other way. Potencies of inconclusive entries are left out as doubtful fits.

assay: Primary qHTS for delayed death inhibitors of the malarial parasite plastid, 48 hour incubation; conditions: P. falciparum luciferase growth in erythrocytes; series mostly up to 28.7 µM
Summary of the method: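 Luciferase-expressing P. falciparum in infected erythrocytes (2% hematocrit, 0.1% parasitemia final) in RPMI 1640/0.5% Albumax were exposed to compound for 48 hours at 37 C, 5% CO2; growth read as luminescence.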
Potency means the concentration at half of the fitted maximal effect; tags describe the fitted curve by direction and shape.

Compound	Potency
CCNc1nc(NCC)n2c(SC(C(=O)Nc3cc(C)ccc3C)c3ccccc3)nnc2n1 (stereo unspecified)	inconclusive [inhibitor, partial curve]
CSc1ncc(C(=O)Nc2ccc(C(C)=O)cc2)c(C)n1	inconclusive [inhibitor, single point]
CCOC(=O)C1=NN(C(=O)c2cccc(Br)c2)C(O)(C(C)(C)C)C1 (stereo unspecified)	inconclusive [inhibitor, partial curve]
C=CCn1c(Sc2ccccc2)nc2c1c(=O)[nH]c(=O)n2C	active: 11.7 µM
O=C1CN(C(=O)c2ccccc2)C(c2ccccc2)c2cc(F)ccc2N1 (stereo unspecified)	inactive
COc1cc(C(=O)OC(C)C(=O)NC(=O)NC2CCCCC2)ccc1OC(F)F (stereo unspecified)	inactive
C=CCOC(=O)C1=C[C@@H](c2coc3ccccc3c2=O)C[C@@H](OCc2ccc(CO)cc2)O1	inconclusive [inhibitor, full curve, poor fit]
Cc1ccc(/C=C2\SC(=S)N(CCC(=O)NNC(=O)c3ccccc3O)C2=O)cc1	inactive
Cc1ccc([N+](=O)[O-])cc1S(=O)(=O)Nc1ccc(-c2ccc(N3CCCC3)nn2)cc1	inactive
CC(C)c1ccc(S(=O)(=O)N2CCN(C(C)C(=O)Nc3ccccc3-c3ccccc3)CC2)cc1 (stereo unspecified)	active: 9.28 µM
Cc1onc(-c2ccccc2Cl)c1C(=O)Nc1nnc(-c2cccc([N+](=O)[O-])c2)s1	inconclusive [inhibitor, partial curve, poor fit]
Cc1[nH]n(-c2cccc([N+](=O)[O-])c2)c(=O)c1-c1ccccc1	inconclusive [inhibitor, partial curve, poor fit]
Cc1ccc2c(c1)C(c1ccccc1)N(C(=O)c1c(F)cccc1Cl)CC(=O)N2 (stereo unspecified)	inconclusive [inhibitor, single point]
Cc1ccc(CN2CCN(/N=C/c3sccc3C)CC2)c(C)c1	inactive
CCS(=O)(=O)Nc1cccc(C2=NN(S(=O)(=O)c3ccccc3)C(c3cccs3)C2)c1 (stereo unspecified)	inconclusive [inhibitor, single point]
CC(C)(O)C#Cc1ccc(C(=O)N2CCN(c3ccc(Cl)cc3)CC2)cc1	inactive
Cc1ccc(-c2cc(C(=O)Nc3cccc(S(=O)(=O)N(C)C)c3)c3ccccc3n2)o1	inconclusive [inhibitor, single point]
CC(=O)Nc1ccc(NC(=O)C(C)c2cccc(C(=O)c3ccccc3)c2)cc1 (stereo unspecified)	inactive
Cc1ccccc1NC(=O)COc1coc(CN2CCCc3ccccc32)cc1=O	inconclusive [inhibitor, partial curve, poor fit]
CCC(C)c1ccc(NC(=O)C2CCN(c3ncccn3)CC2)cc1 (stereo unspecified)	inconclusive [inhibitor, single point]
O=[N+]([O-])c1cccc(/C=C/c2nc[nH]c2[N+](=O)[O-])c1	inconclusive [inhibitor, full curve]
COc1cc(Br)cc(C2C3=C(CCCC3=O)N(c3ccc(F)cc3)C3=C2C(=O)CCC3)c1O	active: 5.22 µM
COCC(=O)n1nc(-c2ccccc2)nc1NCc1ccc(F)cc1	inconclusive [inhibitor, single point]
NC(N)=N/N=C/c1ccccc1Cl	active: 11.7 µM

Compound	Potency
CCn1c(SCc2nc(-c3ccc(OC)c(OC)c3)no2)nnc1-c1cccs1	inconclusive [inhibitor, partial curve]
CCCOc1ccccc1C(=O)N(Cc1cccs1)C1CCS(=O)(=O)C1 (stereo unspecified)	inconclusive [inhibitor, partial curve, poor fit]
Cc1nn(CCCC(=O)NC2CCC(C)CC2)c(=O)c2nn(-c3ccccc3)c(C)c12 (stereo unspecified)	inconclusive [inhibitor, partial curve, poor fit]
COc1ccccc1N1CCN(c2cc(C)nc3nc(C)nn23)CC1	inconclusive [inhibitor, partial curve, poor fit]
NC(=O)C1CCN(C(=O)CCNS(=O)(=O)c2cc(Br)cnc2N)CC1	inactive
Cc1ccc(C)c(NC(=S)NC(NC(=O)/C=C/c2ccccc2)C(Cl)(Cl)Cl)c1 (stereo unspecified)	inconclusive [inhibitor, partial curve]
CCOC(=O)[C@H]1[C@H]2COc3ccccc3[C@@H]2N2C(=O)c3c(C)cc(C)cc3NC(=O)[C@@]12C	inconclusive [inhibitor, single point]
BrC(/C=N/Nc1nc(N2CCOCC2)nc(N2CCOCC2)n1)=C/c1ccccc1	active: 11.7 µM
CCN(CC)C(=O)C(=O)Nc1ccc(Oc2ccccc2)cc1	inactive
Cc1cc(=O)c(C(=O)Nc2cccc(N3CCCC3=O)c2)nn1-c1ccccc1F	inconclusive [inhibitor, single point]
CC(C)COc1ccc(/C=C2/Sc3ccccc3C2=O)cc1	inconclusive [inhibitor, single point]
Cc1ccc(CCNC(=O)C2CCC(=O)N(Cc3ccccc3F)C2)o1 (stereo unspecified)	inconclusive [inhibitor, single point]
COc1ccc(CNC(=O)COC(=O)CCOc2ccc(C)cc2)cc1	inconclusive [inhibitor, partial curve, poor fit]
Cc1noc(C)c1S(=O)(=O)N(CC(=O)NCCc1ccccc1)c1ccc(C(C)C)cc1	inconclusive [inhibitor, single point]
O=c1[nH]c(=O)n(Cc2ccco2)c(O)c1C=NCc1ccco1	inconclusive [inhibitor, partial curve, poor fit]
O=C(O)c1ccc(N/N=C/C(Br)=C/c2ccccc2)cc1	inactive
COc1cc(-c2nc(Cc3c(F)cccc3Cl)no2)cc(OC)c1OC	active: 11.7 µM
COC(=O)C1=C(C)NC(C)=C(C(=O)OC)C1c1ccccc1OCc1c(C)no[n+]1[O-]	active: 11.7 µM
COc1ccc(Cl)cc1NC(=S)NCCC(c1ccccc1)c1ccccc1	inconclusive [inhibitor, single point]
CCCCCN(C(=O)CCC(=O)OCC(=O)c1ccc(C(C)CC)cc1)c1c(N)n(CCCC)c(=O)[nH]c1=O (stereo unspecified)	active: 10.4 µM
CCOc1ccc(C2c3cc(OC)c(OC)cc3CC(=O)N2c2ccccc2)cc1 (stereo unspecified)	inconclusive [inhibitor, single point]
COc1ccc(Cc2cnc(N)nc2N)cc1OC	active: 2.39 µM
Cc1cc(S(=O)(=O)N2CCCCC2CCNC(=O)C(=O)NCc2cccnc2)ccc1F (stereo unspecified)	inconclusive [inhibitor, partial curve]
Cc1ccc(C#CC[N+]2(C)CCCCC2)cc1	active: 6.57 µM

Compound	Potency
COc1ccc(/C=C2\Oc3cc(OCC(=O)N4CCC[C@H]4CO)ccc3C2=O)c(OC)c1	inconclusive [inhibitor, full curve, poor fit]
CCN1c2ccccc2-c2nc3ccccc3n2C1c1ccccn1 (stereo unspecified)	inconclusive [inhibitor, partial curve, poor fit]
Cc1cc(NC(=O)c2noc3c2CCCCC3)nn1Cc1ccc(Cl)cc1	inactive
CC1CCCCC1NC(=O)Cn1c(CN2CCCCC2)nc2ccccc2c1=O (stereo unspecified)	inconclusive [inhibitor, single point]
C[C@@H](CSc1ccccc1)CN1CC[C@H](NC(=O)OCc2ccccc2)CCC1=O	inactive
O=C(Nc1cc(C(F)(F)F)ccc1N1CCCC1)c1ccc2c(c1)OCO2	inconclusive [inhibitor, single point]
COC(=O)CSC1=C(C#N)C(c2ccc(C)cc2)C2=C(CCCC2=O)N1 (stereo unspecified)	inactive
O=C(COC(=O)c1ccco1)NCc1ccc2c(c1)OCO2	inactive
Cc1ccc(C(=O)CSc2nn3c(=O)c(C(C)(C)C)nnc3s2)cc1	inactive
CCOc1ccc(C(=O)NC(=S)Nc2ccccc2N2CCCCC2)cc1[N+](=O)[O-]	inconclusive [inhibitor, single point]
COc1ccc(CNC(=O)c2cc3ccccc3o2)cc1OC	inactive
COc1ccccc1NS(=O)(=O)c1cc(NC(=O)c2cc(=O)[nH]c3ccccc23)ccc1N1CCOCC1	active: 10.4 µM
CN1CCN(C(=O)CN2C(=O)NC(C)(c3ccc4ccccc4c3)C2=O)CC1 (stereo unspecified)	inactive
CCC(=O)NC(=S)Nc1ccc(NC(=O)c2ccc([N+](=O)[O-])cc2Cl)cc1	inactive
CC(=O)c1cccc(S(=O)(=O)Nc2ccc3nc(C)sc3c2)c1	inactive
CCCN(c1ccc(OCC)cc1)S(=O)(=O)c1ccc2c(c1)CCN2C(=O)CCC(=O)O	inconclusive [inhibitor, partial curve]
O=C(O)c1ccccc1C(=O)c1ccc(Br)s1	inactive
Cc1csc(NC(=O)CSc2ccc([N+](=O)[O-])cn2)n1	inactive
N#Cc1cc(-c2ccccc2)cnc1Cl	inactive
COc1ccc2c(c1)nc(N)n2Cc1ccccc1	inconclusive [inhibitor, partial curve, poor fit]
COc1ccc(CCNc2ccc([N+](=O)[O-])cn2)cc1	inconclusive [inhibitor, single point]
Cc1oc(C(=O)O)cc1CSc1nnc(-c2ccccc2)n1C	inactive
On1c2c(c3c4nonc4ccc31)CCCC2	inconclusive [inhibitor, single point]
